These results are taken from PubChem BioAssay AID1645882 (National Center for Advancing Translational Sciences (NCATS), 2021).

Each structure is given as a SMILES string. The campaign covered roughly 16,000 compounds. About 120 (0.75%) were called active. Inconclusive results (about 4%) are left out. Calls come from the whole dose curve; as a rule, active = well fitted inhibition curve with a large enough effect; inconclusive = small, poorly fitted or top-dose-only effect; inactive = no such curve, though single readings can be large or run the other way. This is one part of the list. Where a SMILES comes first, the peptide text is derived from it. The star is where a group is joined. CH2Cl = ClC*

The target in the assay is Rap guanine nucleotide exchange factor 3 (Homo sapiens) (UniProt O95398). Kind of assay: Validation qHTS for antagonist of cAMP-regulated guanine nucleotide exchange factor 3 (EPAC1).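 Note: plate controls were DMSO for no effect and ATA control for full effect; nearly all actives have a fitted effect of over 75% in size.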 As to conditions: EPAC1 Rap1B-BODIPY-GDP exchange, fluorescence; series mostly up to 150 µM; activity change, negative = inhibition: at the top concentration. In a few lines: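 Nucleotide exchange followed as fluorescence loss when BODIPY-GDP leaves Rap1B (480 nm excitation, 540 nm emission), read at 5 min intervals over 30 min. Reaction: 100 nM EPAC1, 250 nM RAP1B-BODIPY-GDP, 50 uM GDP; ATA and DMSO define normalization.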
Chain of UniProt O95398 (O95398 whole entry, looked up): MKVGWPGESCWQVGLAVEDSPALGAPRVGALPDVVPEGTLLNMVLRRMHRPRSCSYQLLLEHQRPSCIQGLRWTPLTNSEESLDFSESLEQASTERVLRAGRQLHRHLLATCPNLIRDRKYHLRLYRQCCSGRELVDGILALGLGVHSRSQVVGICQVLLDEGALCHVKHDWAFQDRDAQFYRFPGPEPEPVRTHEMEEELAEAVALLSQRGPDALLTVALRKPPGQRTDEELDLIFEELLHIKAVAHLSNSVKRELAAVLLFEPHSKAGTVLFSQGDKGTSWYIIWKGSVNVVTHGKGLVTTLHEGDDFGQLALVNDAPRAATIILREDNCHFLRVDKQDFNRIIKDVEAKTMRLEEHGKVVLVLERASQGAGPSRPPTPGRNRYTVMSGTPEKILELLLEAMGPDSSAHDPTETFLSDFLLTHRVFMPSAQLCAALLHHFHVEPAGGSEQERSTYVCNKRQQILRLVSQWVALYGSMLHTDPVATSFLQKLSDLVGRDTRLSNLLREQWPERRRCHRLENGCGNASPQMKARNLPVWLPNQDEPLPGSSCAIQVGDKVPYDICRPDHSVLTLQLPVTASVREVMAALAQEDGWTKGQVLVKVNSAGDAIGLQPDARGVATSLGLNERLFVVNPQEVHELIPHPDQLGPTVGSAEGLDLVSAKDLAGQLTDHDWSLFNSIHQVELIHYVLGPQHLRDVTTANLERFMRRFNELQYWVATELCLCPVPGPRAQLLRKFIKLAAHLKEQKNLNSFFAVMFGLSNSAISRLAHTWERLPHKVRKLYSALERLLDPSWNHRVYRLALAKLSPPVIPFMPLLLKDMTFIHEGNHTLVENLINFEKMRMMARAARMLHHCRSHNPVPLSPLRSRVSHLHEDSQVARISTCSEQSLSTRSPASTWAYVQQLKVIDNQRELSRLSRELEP
A general note: Quantitative high-throughput screening tests each substance at several concentrations.
Regarding `O=C1CN(O)C(c2ccccc2)=c2cc(Cl)ccc2=N1`, the “activity change, negative = inhibition” value is inactive: 7.51%. The result for `CCOC(=O)c1ncn2c1[C@@H]1CCCN1C(=O)c1cc(OC)ccc1-2` reads inactive: -3.12% [at 75.8 µM]; that for `NC(N)=Nc1ccc2[nH]c3c(c2c1)C[C@@]1(O)[C@H]2Cc4ccc(O)c5c4[C@@]1(CCN2CC1CC1)[C@H]3O5`, inactive: 1.25% [at 75.8 µM]; that for `c1ccc(CN2CC[C@@]3(CCCNC3)C2)cc1`, inactive: 20.1%. For `c1cncc(C2CCCN2)c1` (centres undefined), the “activity change, negative = inhibition” value was inactive: 18.3%. Turning to `COc1cc([N+](=O)[O-])cc([N+](=O)[O-])c1N`, the “activity change, negative = inhibition” value is inactive: 20.3%. Turning to `CCC1(C2=NCCN2)Cc2ccccc2O1` (centres undefined), the activity change, negative = inhibition result was “inactive”. The result for `COc1cc(C2c3cc4c(c(O)c3CC3COC(=O)C32)OCO4)cc(OC)c1OC` (centres undefined) reads inactive: 8.82%; that for `C[C@H]1O[C@@H](O[C@H]2[C@@H](O)C[C@H](O[C@H]3[C@@H](O)C[C@H](O[C@H]4CC[C@]5(C)C6CC[C@]7(C)[C@@H](C8=CC(=O)OC8)CC[C@]7(O)C6CC[C@@H]5C4)O[C@@H]3C)O[C@@H]2C)C[C@H](O)[C@@H]1O` (some centres undefined), inactive: 2.92%; that for `CC[C@@H](CO)NC(=O)[C@@H]1C=C2c3cccc4[nH]cc(c34)C[C@H]2N(C)C1`, “inactive”. For the compound `CCCCOC(=O)c1ccccc1C(=O)OCCCC`, the “activity change, negative = inhibition” value is inactive: 4.76%.

Consider `C/C(=C\C=C/[C@@H](C)C(=O)O)[C@H]1CN[C@H](C(=O)O)[C@@H]1CC(=O)O`, for which the “activity change, negative = inhibition” value is inactive: -10.8%. Regarding `CCC1(CCC(C)C)C(=O)NC(=O)NC1=O`, the “activity change, negative = inhibition” value is inactive: -0.724% [at 320 µM]. To `CC(C)(C)c1cc(C=C(C#N)C#N)cc(C(C)(C)C)c1O` belongs “inactive”; to `CC(C)[C@@H]1CN[C@H](C(=O)O)[C@@H]1CC(=O)O`, inactive: -13.7%; to `O=[N+]([O-])c1ccc(O[C@@H]2O[C@H](CO)[C@@H](O)[C@H](O)[C@H]2F)c([N+](=O)[O-])c1`, inactive: -9.64% [at 75.8 µM].

Regarding `O=C(O)c1nn(Cc2ccc(Cl)cc2Cl)c2ccccc12`, the activity change, negative = inhibition result is “inactive”. To `CNCCc1cnc[nH]1` belongs “inactive”. Take `O=C(O)C(Cl)Cl`: the activity change, negative = inhibition result is “inactive”.

In the case of `O=C(NC(=O)c1c(F)cccc1F)Nc1ccc(Cl)cc1`, the “activity change, negative = inhibition” value was inactive: 6.06%.

In the case of `C[C@@H]1C[C@@H]([C@H](O)CC2CC(=O)NC(=O)C2)C(=O)[C@@H](C)C1`, the activity change, negative = inhibition result was “inactive”.

Take `CN1C(=O)COc2c(C(=O)N[C@@H]3CN4CCC3CC4)cc(Cl)cc21`: the “activity change, negative = inhibition” value was inactive: 6.92%.

Regarding `COC[C@H]([C@@H](O)[C@@H](O)C(=O)NCC[C@@H](C)c1nc(/C=C/C[C@H]2OC3(C[C@H](O)[C@H]2C)OC([C@@H](C[C@@H](O)[C@@H](C)[C@@H](O)[C@@H](C)/C=C(C)/C(C)=C/C=C/C(C)=C\C#N)OC)[C@@H](OP(=O)(O)O)C3(C)C)co1)N(C)C` (some centres undefined), the activity change, negative = inhibition was inactive: 27.7% [at 7.83 µM].

On to `C[C@H](N)C(=O)c1ccccc1`, for which the activity change, negative = inhibition entry was “inactive”. Consider `COc1cc(C(O)CN)ccc1O` (centres undefined), for which the “activity change, negative = inhibition” value was inactive: 4.53% [at 75.8 µM]. To `c1cncc([C@@H]2CCCCN2)c1` belongs inactive: 22.7%; to `CN1[C@@H]2CC[C@H]1CC(OC(=O)c1cc(Cl)cc(Cl)c1)C2` (some centres undefined), “inactive”; to `CC(C)(O)[C@@H]1[C@H]2OC(=O)[C@@H]1[C@]1(O)C[C@H]3O[C@]34C(=O)O[C@H]2[C@]14C`, “inactive”. Turning to `C[C@H](N)C(=O)N[C@@H](C)C(=O)N[C@@H](Cc1ccccc1)C(=O)CCl` (H-Ala-Ala-Phe-CH2Cl), the “activity change, negative = inhibition” value is inactive: 29.8% [at 201 µM]. To `C[C@]12CC[C@H](O)C[C@H]1CC[C@@H]1[C@@H]2CC[C@]2(C)[C@@H](c3ccc(=O)oc3)C[C@H]3O[C@]132` belongs inactive: 11%; to `COc1cc2c(c(OC)c1OC)-c1ccc(O)c(=O)cc1C(NC(C)=O)CC2` (centres undefined), inactive: 19.8%. To `Clc1ccc(Cl)cc1` belongs inactive: 15.5%; to `Cn1sc(Cl)cc1=O`, inactive: 5.01%.

Consider `C[C@H]1O[C@@H](O[C@H]2[C@@H](O)C[C@H](O[C@H]3[C@@H](O)C[C@H](O[C@H]4CC[C@@]5(C)[C@H](CC[C@@H]6[C@@H]5CC[C@]5(C)[C@@H](C7=CC(=O)OC7)CC[C@]65O)C4)O[C@@H]3C)O[C@@H]2C)C[C@H](O)[C@@H]1O`, for which the “activity change, negative = inhibition” value was inactive: 23.7%. The result for `CN1CC[C@@H]2CN3CCc4cccc(c43)[C@@H]2C1` reads inactive: 2.75%; that for `COc1ccc2c3c1O[C@H]1[C@@H](O)C=C[C@H]4[C@@H](C2)NCC[C@@]341`, “inactive”; that for `C[N+]1(C)CCc2cc3c(cc2[C@H]1[C@@H]1OC(=O)c2c1ccc1c2OCO1)OCO3`, inactive: 10.9% [at 75.8 µM]. The result for `Cc1nnc2n1-c1ccc(Cl)cc1C(c1ccccc1)=NC2` reads inactive: 26%; that for `CCC/C=C/C=C/C(=O)O[C@H]1/C(=C/C(=O)OC)C[C@H]2C[C@H]([C@@H](C)O)OC(=O)C[C@H](O)C[C@@H]3C[C@H](OC(C)=O)C(C)(C)[C@](O)(C[C@@H]4C/C(=C/C(=O)OC)C[C@H](/C=C/C(C)(C)[C@]1(O)O2)O4)O3`, inactive: -4.25%; that for `O=C(CN1CCCC1)c1ccccc1`, inactive: -7.88%. Consider `C=CCc1cc(OC)c2c(c1OC)OCO2`, for which the “activity change, negative = inhibition” value was inactive: 4.54%. As to `O=C(O)[C@@H]1CSC(c2cccnc2)N1` (some centres undefined), the “activity change, negative = inhibition” value is inactive: 15.1%. As for `COc1ccc2c(c1O)-c1cccc3c1[C@@H](C2)N(C)CC3`, the “activity change, negative = inhibition” value is inactive: 20.3% [at 75.8 µM]. Consider `NC(CCP(=O)(O)O)C(=O)O` (centres undefined), for which the activity change, negative = inhibition entry was “inactive”.
